Five molecules from paper PMC3126750 can be followed below.

Sequences of proteins named here, by UniProt entry; tags and fusion partners are left off.
UniProt P43593: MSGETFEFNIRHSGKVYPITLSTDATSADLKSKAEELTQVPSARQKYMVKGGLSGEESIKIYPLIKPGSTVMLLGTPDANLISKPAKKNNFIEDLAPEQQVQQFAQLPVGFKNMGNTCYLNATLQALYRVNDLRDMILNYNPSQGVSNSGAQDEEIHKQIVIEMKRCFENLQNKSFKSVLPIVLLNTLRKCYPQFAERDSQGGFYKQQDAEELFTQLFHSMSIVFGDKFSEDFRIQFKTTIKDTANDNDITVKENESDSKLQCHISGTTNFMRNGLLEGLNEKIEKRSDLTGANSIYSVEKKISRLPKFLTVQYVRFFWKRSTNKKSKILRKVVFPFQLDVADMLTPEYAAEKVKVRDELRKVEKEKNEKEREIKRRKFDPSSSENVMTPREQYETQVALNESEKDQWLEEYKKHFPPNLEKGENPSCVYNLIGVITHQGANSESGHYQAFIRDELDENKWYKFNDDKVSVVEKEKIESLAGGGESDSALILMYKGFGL
UniProt P48510: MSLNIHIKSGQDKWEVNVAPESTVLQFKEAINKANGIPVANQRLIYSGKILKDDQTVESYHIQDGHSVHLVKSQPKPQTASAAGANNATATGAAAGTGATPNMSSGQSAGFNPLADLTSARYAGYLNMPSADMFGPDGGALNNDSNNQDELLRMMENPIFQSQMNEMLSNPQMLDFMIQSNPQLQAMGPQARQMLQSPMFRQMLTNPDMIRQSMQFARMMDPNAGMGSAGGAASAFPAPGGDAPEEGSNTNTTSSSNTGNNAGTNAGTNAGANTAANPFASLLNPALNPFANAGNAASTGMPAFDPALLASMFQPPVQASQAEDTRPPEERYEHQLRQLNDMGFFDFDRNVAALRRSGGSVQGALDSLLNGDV

These are yes or no findings as the source states them, for the method shown. Some entries that bind do so weakly or less than the wild type. Where a sequence is shown, tags or fusion partners need not be part of it.

The target in the assay is T1, Rpn1^(391 to 642) fused to Gal4-DBD (S. cerevisiae) (UniProt P38764).
T1 sequence: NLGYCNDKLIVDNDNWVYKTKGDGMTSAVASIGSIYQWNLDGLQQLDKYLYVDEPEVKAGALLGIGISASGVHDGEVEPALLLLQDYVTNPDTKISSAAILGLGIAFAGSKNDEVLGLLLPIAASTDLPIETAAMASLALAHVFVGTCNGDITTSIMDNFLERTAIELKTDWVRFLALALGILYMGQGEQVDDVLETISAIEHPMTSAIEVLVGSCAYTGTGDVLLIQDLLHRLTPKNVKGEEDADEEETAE
Description: two-hybrid; reporter strain MaV203; Gal4-DBD fused to Rpn1 391-642 and Gal4-AD fusions; interaction indicated by growth on 100 mM 3-AT and lack of growth on 0.2% 5FOA.

For the molecule “Gal4-AD fused to Ubp6 (from UniProt P43593 1-499) (enzyme)”, the binding result is listed as “binds”.

As for “Gal4-AD fused to Dsk2 (from UniProt P48510 1-373)”, the binding result was “binds”.

B1: Gal4-AD fused to Rad23 (protein, UniProt P32628 1-398)
chain: MVSLTFKNFKKEKVPLDLEPSNTILETKTKLAQSISCEESQIKLIYSGKVLQDSKTVSECGLKDGDQVVFMVSQKKSTKTKVTEPPIAPESATTPGRENSTEASPSTDASAAPAATAPEGSQPQEEQTATTERTESASTPGFVVGTERNETIERIMEMGYQREEVERALRAAFNNPDRAVEYLLMGIPENLRQPEPQQQTAAAAEQPSTAATTAEQPAEDDLFAQAAQGGNASSGALGTTGGATDAAQGGPPGSIGLTVEDLLSLRQVVSGNPEALAPLLENISARYPQLREHIMANPEVFVSMLLEAVGDNMQDVMEGADDMVEGEDIEVTGEAAAAGLGQGEGEGSFQVDYTPEDDQAISRLCELGFERDLVIQVYFACDKNEEAAANILFSDHAD
On to B1, for which the binding entry is on record as “binds”.

B2: Gal4-AD fused to Rpn2 (protein, UniProt P32565 1-945)
chain: MSLTTAAPLLALLRENQDSVKTYALESINNVVDQLWSEISNELPDIEALYDDDTFSDREMAALIASKVYYNLGEYESAVKYALAAKDRFDIDEKSQFVETIVSKSIEMYVQEASKQYTKDEQFYTKDIIDPKLTSIFERMIEKCLKASELKLALGIALEGYRLDIIESALKSKLDQDSTSENVKIINYLLTLAITTVTNSKFRSSILRKSFDFLMNMPNCDYLTLNKVVVNLNDAGLALQLFKKLKEENDEGLSAQIAFDLVSSASQQLLEILVTELTAQGYDPALLNILSGLPTCDYYNTFLLNNKNIDIGLLNKSKSSLDGKFSLFHTAVSVANGFMHAGTTDNSFIKANLPWLGKAQNWAKFTATASLGVIHKGNLLEGKKVMAPYLPGSRASSRFIKGGSLYGLGLIYAGFGRDTTDYLKNIIVENSGTSGDEDVDVLLHGASLGIGLAAMGSANIEVYEALKEVLYNDSATSGEAAALGMGLCMLGTGKPEAIHDMFTYSQETQHGNITRGLAVGLALINYGRQELADDLITKMLASDESLLRYGGAFTIALAYAGTGNNSAVKRLLHVAVSDSNDDVRRAAVIALGFVLLRDYTTVPRIVQLLSKSHNAHVRCGTAFALGIACAGKGLQSAIDVLDPLTKDPVDFVRQAAMIALSMILIQQTEKLNPQVADINKNFLSVITNKHQEGLAKFGACVAQGIMNAGGRNVTIQLENADTGTLDTKSVVGLVMFSQFWYWFPLAHFLSLSFTPTTVIGIRGSDQAIPKFQMNCYAKEDAFSYPRMYEEASGKEVEKVATAVLSTTARAKARAKKTKKEKGPNEEEKKKEHEEKEKERETNKKGIKETKENDEEFYKNKYSSKPYKVDNMTRILPQQSRYISFIKDDRFVPVRKFKGNNGVVVLRDREPKEPVALIETVRQMKDVNAPLPTPFKVDDNVDFPSA
Turning to B2, the binding result is listed as “no binding”.

B3: Gal4-AD fused to Ddi1 (protein, UniProt P40087 1-428)
chain: MDLTISNELTGEIYGPIEVSEDMALTDLIALLQADCGFDKTKHDLYYNMDILDSNRTQSLKELGLKTDDLLLIRGKISNSIQTDAATLSDEAFIEQFRQELLNNQMLRSQLILQIPGLNDLVNDPLLFRERLGPLILQRRYGGYNTAMNPFGIPQDEYTRLMANPDDPDNKKRIAELLDQQAIDEQLRNAIEYTPEMFTQVPMLYINIEINNYPVKAFVDTGAQTTIMSTRLAKKTGLSRMIDKRFIGEARGVGTGKIIGRIHQAQVKIETQYIPCSFTVLDTDIDVLIGLDMLKRHLACVDLKENVLRIAEVETSFLSEAEIPKSFQEGLPAPTSVTTSSDKPLTPTKTSSTLPPQPGAVPALAPRTGMGPTPTGRSTAGATTATGRTFPEQTIKQLMDLGFPRDAVVKALKQTNGNAEFAASLLFQ
In the case of B3, the binding entry was “binds”.
